# PubChem BioAssay AID686970 (National Center for Advancing Translational Sciences (NCATS), 2013)
# The whole screen tested about 360,000 compounds, of which about 6,000 (1.7%) were called active. Inconclusive means that the source gave no clear call. Such entries were picked first, then a sample of the others. Calls follow the shape of the dose curve; as a rule, active = well fitted cell-killing curve with a large enough effect; inconclusive = small, poorly fitted or top-dose-only effect, or effect the other way; inactive = flat fitted curve, though single readings scatter. No potency is given beside an inconclusive call; the fits are too rough.
# Experiment: qHTS for induction of synthetic lethality in tumor cells producing 2HG: qHTS for the HT-1080-NT fibrosarcoma cell line;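 also: NT is the 2HG producing partner of a matched IDH1 knockdown line; nearly all actives have a fitted effect of over 55% in size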;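 as to activity, negative = less viability: 0% = DMSO-treated cells and -100% = media-only wells without cells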
# Conditions: HT-1080-NT fibrosarcoma viability, CellTiter-Glo ATP luminescence, 48 h; activity, negative = less viability: at 46.1 µM (top of the series) unless noted
# Method in brief: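 Toxicity toward the 2HG-producing NT line was scored as %Activity, normalised to DMSO and no-cell wells, from CellTiter-Glo luminescence after 48 hours' treatment.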
# Potency is read from the fitted curve at half-maximal effect; tags tell the direction and shape of the fitted curve.
SMILES,"activity, negative = less viability",Potency
COC(=O)[C@@]12C[C@@H](CC(=O)N3CCOCC3)C(=O)N(Cc3ccccc3)C1=CCC(C)(C)C2,inactive: 3.91%,–
Nc1nonc1-n1nnc(C(=O)N/N=C/C=C/c2ccccc2)c1CSC1=NCCS1,–,"inconclusive [cytotoxic, partial curve]"
COc1cc(C2NC(=O)NC(C)=C2C(=O)OC2CCCCC2)cc(Br)c1O (stereo not given),–,"inconclusive [cytotoxic, single point]"
C[C@@H]1CN([C@@H](C)CO)C(=O)c2cccc(NC(=O)Nc3ccc(F)cc3)c2O[C@@H]1CN(C)Cc1ccc(Oc2ccccc2)cc1,–,active: 23.1 µM
CCCC(=O)Nc1ccc(N2CCN(C(=O)c3cc4ccccc4o3)CC2)cc1,inactive: -5.83%,–
COc1ccccc1Cc1c(-c2ccco2)nc2ccc(Cl)cn12,–,"inconclusive [cytotoxic, single point]"
C[C@H]1c2cccc(O)c2C(O)=C2C(=O)C3(O)C(O)=C(C(N)=O)C(=O)[C@@H](N(C)C)[C@@H]3[C@@H](O)[C@@H]21 (stereo not given in full),–,"inconclusive [cytotoxic, single point]"
NC(c1csc(Nc2nncc3ccccc23)n1)C1CCCCC1 (stereo not given),–,active: 20.6 µM
Nc1nc(-c2ccccc2)c(N=Nc2ccccc2Cl)s1,–,"inconclusive [cytotoxic, single point]"
COc1ccc(-c2nn(-c3ccccc3)cc2/C=N/Nc2ccccn2)cc1OC,–,"inconclusive [cytotoxic, single point]"
C#Cc1ccc([C@H]2C=C(C(=O)Nc3ccccc3)O[C@@H](OCc3ccc(CO)cc3)C2)cc1,–,"inconclusive [cytotoxic, partial curve]"
Cc1cc(N2C(=O)C(O)=C(C(=O)c3ccco3)C2c2cccc(O)c2)no1 (stereo not given),–,"inconclusive [rising, single point]"
O=C(Nc1cccc2c1CCCC2)c1cc(C2CCCCN2C(=O)c2cccs2)on1 (stereo not given),–,"inconclusive [cytotoxic, single point]"
CN1CCN(c2nc(-c3ccc(Br)cc3)nnc2-c2ccccc2)CC1,–,"inconclusive [cytotoxic, single point]"
CCc1n[nH]c(=S)n1/N=C/c1c[nH]c2ccc(Br)cc12,–,"inconclusive [cytotoxic, partial curve]"
COc1ccc(N2C(=S)NC3c4cc(Cl)ccc4OC2(C)C3C(=O)N(C)C)cc1 (stereo not given),–,"inconclusive [cytotoxic, single point]"
Cc1c(C(=O)Nc2ccc(Cc3ccncc3)cc2)cccc1[N+](=O)[O-],–,"inconclusive [cytotoxic, partial curve]"
CCCCNc1c(-c2ccc(OC)c(SC(C)CC)c2)nc2cc(C)ccn12 (stereo not given),–,active: 20.6 µM
COc1ccc(-n2nnc3c(=O)n(CC(=O)Nc4cc(C)on4)cnc32)cc1OC,–,"inconclusive [cytotoxic, single point]"
COC(=O)C1(C)NC(c2ccc(O)cc2)C2C(=O)N(c3ccccc3)C(=O)C21 (stereo not given),inactive: -2.16%,–
Cc1ccc(Cl)cc1NC(=O)c1ccccc1OCC(=O)Nc1ccc(Cl)cc1,–,"inconclusive [cytotoxic, single point]"
COc1ccc(N(CC(=O)Nc2cccc(C)c2)S(=O)(=O)c2c(C)n[nH]c2C)cc1,inactive: 1.8%,–
COc1cccc(OCc2cc(/C=N/Nc3ccc(C(=O)O)cc3)ccc2OC)c1,–,active: 20.6 µM
O=C1CC(N2CCCCCC2)C(=O)N1c1ccc2c(c1)OCO2 (stereo not given),–,"inconclusive [cytotoxic, single point]"

SMILES,"activity, negative = less viability",Potency
COc1ccc(CCNS(=O)(=O)c2cccc(C(=O)O)c2)cc1OC,inactive: 8.04%,–
CCCCCNC(=O)C(C1CC1)n1c(=O)c(-c2cc3ccccc3[nH]2)nc2ccccc21 (stereo not given),–,"inconclusive [cytotoxic, single point]"
CCc1ccc(N=C2NC(=O)/C(=C/c3cc(OC)c(OC)c(OC)c3)S2)cc1,inactive: -26.8%,–
Cc1ccc(N2C(N)=C(C#N)C(c3cccnc3)C3=C2CC(C)(C)CC3=O)cc1 (stereo not given),–,"inconclusive [cytotoxic, single point]"
Cc1ccc(-c2cc(C(=O)N/N=C/c3cccnc3)c3ccccc3n2)cc1C,–,"inconclusive [cytotoxic, single point]"
C[C@H]1CN([C@@H](C)CO)C(=O)c2cccc(NS(=O)(=O)c3ccc(F)cc3)c2O[C@H]1CN(C)Cc1ccc(Cl)c(Cl)c1,–,"inconclusive [cytotoxic, single point]"
CCc1ccc(-c2cc(C)no2)cc1S(=O)(=O)N1CCN(c2ccccn2)CC1,–,"inconclusive [cytotoxic, single point]"
Cc1ccnc(NC(=O)c2ccccc2NC(=O)c2ccc(Cl)cc2Cl)c1,–,active: 2.91 µM
COc1ccc(C(=O)Nc2ccccn2)cc1S(=O)(=O)N1CCOCC1,inactive: -0.799%,–
C#Cc1cccc(Nc2nc(NCc3ccccc3)nc3ccsc23)c1,–,"inconclusive [cytotoxic, single point]"
CN(C)CCCN1C(=O)c2cccc3cccc(c23)C1=O,–,"inconclusive [cytotoxic, single point]"
COc1ccc(OC)c(-c2cc(-c3cccnc3)nc(N)c2C#N)c1,–,active: 1.84 µM
COC(=O)c1scc(C)c1S(=O)(=O)Nc1ccc(C)cc1,–,"inconclusive [cytotoxic, single point]"
COc1ccc(C(=O)c2[nH]c(N)c(C(=O)NCCc3c[nH]c4ccccc34)c2-c2ccccc2Br)cc1,–,"inconclusive [cytotoxic, single point]"
CCCCN1C=CC(=C2C(=O)c3ccccc3C2=O)C=C1,–,active: 16.4 µM
CC(C)C(c1nnnn1CCc1ccccc1)N1CCOCC1 (stereo not given),inactive: 13.9%,–
N#Cc1cn(Cc2ccncc2)c(=O)[nH]c1=O,inactive: -5.72%,–
Cc1ccc2oc(=O)cc(CN3CCN(C/C=C/c4ccccc4)CC3)c2c1,inactive: -0.181%,–
COc1ccc(-c2nnc(NC(=O)c3ccc(S(=O)(=O)N4CCc5ccccc5C4)cc3)o2)cc1,inconclusive: -18.9% [cytotoxic],–
CCN(CC)S(=O)(=O)c1cccc(-c2nnc(SCC(=O)c3cc(C)n(C)c3C)o2)c1,inactive: 14.9%,–
CCOc1ccc(NS(=O)(=O)c2ccc(OCC)c3ncccc23)cc1,–,active: 11.2 µM
O=C(Nc1ccc(NC(=O)c2cccs2)cn1)c1ccccc1,inactive: -1.9%,–
C/C(=N\NC(=O)c1nnn(-c2nonc2N)c1CN1CCC(C)CC1)c1ccc(Br)cc1,inactive: -1.23%,–
CCn1c(/N=C/c2c[nH]c3ccccc23)nc2ccccc21,inactive: 23.8%,–

SMILES,"activity, negative = less viability",Potency
C[C@H](CO)N1C[C@H](C)[C@H](CN(C)S(C)(=O)=O)Oc2c(cccc2N(C)C)C1=O,inactive: 0.25%,–
CCN(CC)CCN1c2ccccc2Sc2ccc3ccccc3c21,–,"inconclusive [cytotoxic, single point]"
Cc1cccc(NC(=S)N/N=C/c2c[nH]c3ccccc23)c1,–,active: 23.1 µM
CCCCCCCCCCCCCCCCn1cc[n+](CC(C)=O)c1,–,"inconclusive [cytotoxic, single point]"
O=C(NCCc1ccccc1)C(c1cccs1)N(C(=O)CCl)c1ccc(Cl)cc1 (stereo not given),–,active: 3.66 µM
COC(=O)c1cccc(-c2ccc(C(c3c(C)[nH][nH]c3=O)c3c(C)[nH][nH]c3=O)o2)c1,–,"inconclusive [cytotoxic, single point]"
Cc1ccc(C(=O)NC(=S)N2CCN(c3ccc([N+](=O)[O-])cc3)CC2)cc1,inactive: -5.85%,–
O=C(CNCCC1=CCCCC1)Nc1ccc(N2CCCCCC2)cc1,–,"inconclusive [cytotoxic, single point]"
CC(C)(C)Nc1ncnc2sc(-c3ccccc3)cc12,inactive: -26.4%,–
Cc1csc(NC(=O)c2cccc(Cn3nc(C)c(Br)c3C)c2)n1,–,"inconclusive [cytotoxic, partial curve]"
COc1ccccc1CN(Cc1nc2ccccc2c(=O)[nH]1)S(=O)(=O)c1ccc2ccccc2c1,–,"inconclusive [cytotoxic, single point]"
CCOC(=O)c1sc(NC(=S)NC(=O)c2ccco2)nc1C,inactive: 1.6%,–
COc1cc(CNCCN2CCOCC2)ccc1OCc1ccc(Cl)cc1Cl,–,active: 25.9 µM
Cc1ccc(NC(=O)CCN2C(=O)CSC2=O)cc1,–,"inconclusive [rising, single point]"
C[C@]12c3[nH]c4ccc(Cl)cc4c3CCN1C(=O)[C@@H](CC(=O)NCCC1=CCCCC1)C[C@@H]2C(=O)N1CCOCC1,inactive: -22.5%,–
O=C(CCNc1ccc(Br)cc1)c1cccc([N+](=O)[O-])c1,–,active: 23.1 µM
Cc1cccnc1NC(=O)c1ccc(COc2ccccc2)o1,inactive: 11%,–
O=C(c1[nH]c(C(F)(F)F)nc1-c1ccccc1)N1CCC(Cc2ccccc2)CC1,–,"inconclusive [cytotoxic, single point]"
c1ccc(COc2cccc(-c3cc4nc(NCCOc5ccccc5)ccn4n3)c2)cc1,–,"inconclusive [cytotoxic, partial curve]"
CC(=O)Nc1ccc(Nc2cc(C)nc3c(-c4ccccc4)cnn23)cc1,–,active: 14.6 µM
CCCCCCCCN1C(=O)[C@H](CC(=O)N2CCN(C(=O)C3CC3)CC2)C[C@@]2(C(=O)OCC)CCCC=C12,–,"inconclusive [cytotoxic, single point]"
COc1ccc(CN(C)C(=O)CCl)cc1,–,"inconclusive [cytotoxic, single point]"
